# Test results published in PubChem BioAssay AID485360 (National Center for Advancing Translational Sciences (NCATS), 2010).
# Screen size: about 230,000 compounds; about 1,500 (0.65%) were called active. Inconclusive means that the source gave no clear call. Such entries were picked first, then a sample of the others. Calls come from the whole dose curve; as a rule, active = well fitted inhibition curve with a large enough effect; inconclusive = small, poorly fitted or top-dose-only effect; inactive = no such curve, though single readings can be large or run the other way. A potency beside an inconclusive call is a rough fit, not a confirmed value.
# Target: Lethal(3)malignant brain tumor-like protein 1 (Homo sapiens) (UniProt Q9Y468)
# Assay: qHTS Assay for the Inhibitors of L3MBTL1; note: nearly all actives have a fitted effect of over 60% in size
# Settings: AlphaScreen L3MBTL1–H3K9me1 peptide binding; activity, negative = inhibition: at 57.1 µM (top of the series)
# Method in brief: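 Displacement of a biotinylated histone H3(1-15) peptide monomethylated at Lys9 (75 nM) from L3MBTL1 (50 nM) was measured by AlphaScreen after a 30 min room-temperature compound incubation; cefsulodin titration served as intraplate control.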
# % is set by controls: 0 for no effect and ±100 for the full control effect; potency is the fitted concentration of half-maximal effect; tags give direction and shape of the fitted curve.
# UniProt Q9Y468, sequence (Q9Y468 whole entry, looked up): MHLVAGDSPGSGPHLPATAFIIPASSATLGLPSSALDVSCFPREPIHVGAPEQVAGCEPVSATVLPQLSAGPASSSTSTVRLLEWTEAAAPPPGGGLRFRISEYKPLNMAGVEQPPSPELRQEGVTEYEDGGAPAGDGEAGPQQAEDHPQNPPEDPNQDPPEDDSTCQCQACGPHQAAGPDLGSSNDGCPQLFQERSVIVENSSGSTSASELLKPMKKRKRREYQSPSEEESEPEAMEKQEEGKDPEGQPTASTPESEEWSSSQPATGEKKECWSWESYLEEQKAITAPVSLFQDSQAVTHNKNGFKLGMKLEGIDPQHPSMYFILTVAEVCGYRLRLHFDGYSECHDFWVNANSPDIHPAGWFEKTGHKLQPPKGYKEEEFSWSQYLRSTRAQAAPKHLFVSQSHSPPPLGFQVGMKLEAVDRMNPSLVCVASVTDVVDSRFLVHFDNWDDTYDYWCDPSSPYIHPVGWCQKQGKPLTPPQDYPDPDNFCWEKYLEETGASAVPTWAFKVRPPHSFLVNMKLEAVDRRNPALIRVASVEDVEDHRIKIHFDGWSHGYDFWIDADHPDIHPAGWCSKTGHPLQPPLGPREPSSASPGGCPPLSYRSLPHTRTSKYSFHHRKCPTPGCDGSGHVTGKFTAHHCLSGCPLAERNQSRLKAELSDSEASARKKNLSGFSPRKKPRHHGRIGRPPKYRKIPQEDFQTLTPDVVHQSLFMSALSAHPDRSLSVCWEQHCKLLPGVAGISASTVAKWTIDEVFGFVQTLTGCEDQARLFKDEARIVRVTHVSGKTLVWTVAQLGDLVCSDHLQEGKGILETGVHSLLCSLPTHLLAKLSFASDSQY
Compound,Potency,"activity, negative = inhibition"
O=C(Nc1nc2c(s1)CCCC2)c1ccc2ncsc2c1,inactive,
Cc1c(N/N=C(\C#N)C(=O)c2ccccc2)c(=O)n(-c2ccccc2)n1C,"inconclusive: 39.8 µM [inhibitor, single point]",
CCCCNC(=O)NNc1nc(Cl)cc(C)c1C#N,inactive,
O=C(CSc1nc(-c2ccccc2)c(-c2ccccc2)[nH]1)Nc1ccc2c(c1)OCO2,"inconclusive: 31.6 µM [inhibitor, single point]",
CC(C)(C)c1ccc(S(=O)(=O)CC(O)CSc2nc3c(cc2C#N)CCCC3)cc1 (stereo unspecified),"inconclusive: 39.8 µM [inhibitor, single point]",
COc1ccc(NC(=O)CN(C)C(=O)c2cc3c(s2)CCC3)cc1,active: 3.16 µM,
Fc1ccc(/C=N/NC(=S)Nc2cccnc2)cc1F,"inconclusive: 0.631 µM [inhibitor, full curve, poor fit]",
Cc1cccc(N2CCN(C(=O)c3ccc4nc(-c5ccco5)c(-c5ccco5)nc4c3)CC2C)c1 (stereo unspecified),"inconclusive: 25.1 µM [inhibitor, single point]",
Cc1cccc(N2C(=O)C(O)=C(C(=O)c3cccs3)C2c2cccc(Oc3ccccc3)c2)n1 (stereo unspecified),"inconclusive: 35.5 µM [inhibitor, single point]",
Cc1c(C(=O)Nc2ccc3c(c2)OCCO3)sc2nc(-c3ccccc3)cn12,"inconclusive: 31.6 µM [inhibitor, single point]",
O=C(NCCCO)/C(=C\c1ccco1)NC(=O)c1ccco1,inactive,
O=C(O)c1cc(N2N=C(C(F)(F)F)/C(=C/C=C/c3ccco3)C2=O)ccc1Cl,active: 1 µM,
c1ccc(CCNc2nc(-c3ccccn3)nc3ccccc23)cc1,"inconclusive: 0.447 µM [inhibitor, full curve, poor fit]",
O=C(NCc1ccccn1)C(=O)NCC(c1ccco1)N1CCOCC1 (stereo unspecified),"inconclusive: 2.24 µM [inhibitor, full curve, poor fit]",
COc1ccc(C2=Nn3c(nnc3-c3ccccc3C(F)(F)F)SC2)cc1OC1CCOC1 (stereo unspecified),inactive,
Cc1ccc(S(=O)(=O)Nc2ccc3c(c2)nc2n3CCN(Cc3ccccc3)C2)cc1,inactive,
CN(C)c1nc(SCCOC(=O)COc2ccc(Cl)cc2Cl)nc(N(C)C)n1,"inconclusive: 6.31 µM [inhibitor, single point]",
CC1CCCN(CCCOc2ccccc2-c2ccccc2)C1 (stereo unspecified),,inactive: -2.42% [at 11.4 µM]
COc1ccccc1NNC(=O)c1cccnc1Oc1ccccc1,inactive,
Cc1ccc(-c2nc(C3CCCN(S(=O)(=O)c4ccc(C(F)(F)F)cc4)C3)no2)cc1 (stereo unspecified),"inconclusive: 4.47 µM [inhibitor, single point]",
CCN(CC)S(=O)(=O)c1cccc(C(=O)Nc2ccc(S(=O)(=O)NC3=NCCCCC3)cc2)c1,inactive,
CSCc1nnc(NC(=O)c2ccc(S(=O)(=O)N(C)C)cc2)o1,"inconclusive: 0.562 µM [inhibitor, full curve, poor fit]",
C=CC[n+]1c(-c2ccc(C)cc2)csc1NNC(=O)Nc1ccccc1,"inconclusive: 39.8 µM [inhibitor, single point]",
CCOc1cccc2sc(N3CCN(C(=O)c4ccc5ncsc5c4)CC3)nc12,inactive,

Compound,Potency,"activity, negative = inhibition"
CCOCCCN(Cc1cc2cc(C)cc(C)c2[nH]c1=O)C(=O)N(CC)CC,inactive,
O=C(CSc1nc2scc(-c3ccccc3)c2c(=O)[nH]1)N1CCCCC1,inactive,
CC(Oc1cccc(Cl)c1)C(=O)Nc1ccc(S(=O)(=O)N(C)C2CCN(C)CC2)cc1 (stereo unspecified),inactive,
CCOC(=O)C(=CNc1ccc(-c2ccco2)c(Cl)c1)C(=O)OCC,inactive,
CC1=NNC(=O)/C1=C\c1cn(-c2ccccc2)nc1-c1ccccc1,"inconclusive: 28.2 µM [inhibitor, single point]",
COc1cccc(C2/C(=C(\O)c3ccc(OC)c(OC)c3)C(=O)C(=O)N2c2cc(C)on2)c1 (stereo unspecified),"inconclusive: 39.8 µM [inhibitor, single point]",
O=C(Nc1ccnc(-c2ccncc2)n1)C1CC1,"inconclusive: 0.794 µM [inhibitor, single point]",
CC(NC(=O)c1ccccc1NC(=O)c1ccco1)C(=O)O (stereo unspecified),"inconclusive: 10 µM [inhibitor, partial curve, poor fit]",
Cc1ccc(NC(=S)N=Nc2c(O)n(C)c3ccc(S(=O)(=O)N4CCOCC4)cc23)cc1C,inactive,
O=C(Nc1nnc(-c2ccncc2)o1)c1ccccc1F,"inconclusive: 22.4 µM [inhibitor, partial curve, poor fit]",
N/C(=N\OC(=O)c1cccc([N+](=O)[O-])c1)c1ccccn1,"inconclusive: 1 µM [inhibitor, full curve, poor fit]",
Cc1ccsc1C(=O)NCCc1ccco1,"inconclusive: 39.8 µM [inhibitor, single point]",
COc1cc(/C=C2/NC(=O)N(c3cccc(Cl)c3)C2=O)ccc1O,inactive,
CN(C(=O)COC(=O)c1ccc(Cl)c(S(=O)(=O)N2CCCCCC2)c1)C1CCS(=O)(=O)C1 (stereo unspecified),"inconclusive: 1.41 µM [inhibitor, single point]",
CC1=CC2=NC(=O)/C(=C/c3coc4ccc(Cl)cc4c3=O)C(=N)N2O1,inactive,
O=C(CSc1ccsc1[N+](=O)[O-])N1CCN(c2ccc(Cl)cc2)CC1,"inconclusive: 20 µM [inhibitor, single point]",
O=C(O)CC1S/C(=N\N=C/c2ccccc2)N(c2ccc(O)cc2)C1=O (stereo unspecified),inactive,
CCN(CC)CCn1c(NCc2ccc3c(c2)OCO3)nc2ccccc21,inactive,
COc1ccc2c(c1)C1C=CCC1C(c1cc3c(cc1Br)OCO3)N2 (stereo unspecified),"inconclusive: 31.6 µM [inhibitor, single point]",
CC(C)OC(=O)CC(=O)c1sc2nc3c(cc2c1N)CN(C)CC3,"inconclusive: 35.5 µM [inhibitor, single point]",
CC1NC(=O)NC1CCCCCC(=O)Nc1ccc(F)c(Cl)c1 (stereo unspecified),active: 0.316 µM,
N#C/C(=N\Nc1cccc(C(F)(F)F)c1)C(=O)c1csc(-c2cccnc2)n1,"inconclusive: 28.2 µM [inhibitor, single point]",
CC(C)c1nnc(SCC(=O)NCc2ccc3c(c2)OCO3)n1C,"inconclusive: 5.01 µM [inhibitor, single point]",
COc1ccc(NC(=S)N2CCCN(Cc3cc(C)ccc3C)C2)cc1,"inconclusive: 2.51 µM [inhibitor, partial curve, poor fit]",

Compound,Potency,"activity, negative = inhibition"
Nc1cccc2[nH]c(C(F)(F)F)nc12,"inconclusive: 0.112 µM [inhibitor, full curve, poor fit]",
COc1ccc(N2CCN(C(=O)c3ccc(S(=O)(=O)N4CCCCCC4)cc3)CC2)cc1,inactive,
CCN(CCNC(=O)C1CCN(Cc2nc(-c3ccc(Cl)cc3)oc2C)CC1)c1ccccc1,"inconclusive: 25.1 µM [inhibitor, single point]",
COc1cc(/C=C/c2sc3ccccc3[n+]2CCCS(=O)(=O)[O-])ccc1O,active: 28.2 µM,
CCCCN(C)C(=O)c1nc2ccccn2c1CN(C)Cc1csc(C)n1,"inconclusive: 6.31 µM [inhibitor, single point]",
CN1CCN(c2oc(Cc3cccc4ccccc34)nc2C#N)CC1,"inconclusive: 28.2 µM [inhibitor, single point]",
O=C(CC(NCc1ccccn1)C(=O)O)Nc1ccccc1Cl (stereo unspecified),active: 20 µM,
CC(=O)Oc1cc(C(=O)OCC(=O)N2CCc3ccccc3C2)cc(OC(C)=O)c1OC(C)=O,active: 8.91 µM,
CC1CN(S(=O)(=O)c2ccccc2)C(C)CN1S(=O)(=O)c1ccccc1 (stereo unspecified),"inconclusive: 6.31 µM [inhibitor, single point]",
CC1(c2ccc(Cl)cc2)NC(=O)N(CC(=O)Nc2cccnc2Cl)C1=O (stereo unspecified),inactive,
COc1ccc(C)cc1S(=O)(=O)NNc1nc(C)cc(C)n1,"inconclusive: 35.5 µM [inhibitor, single point]",
CC1(C)CC(=O)C(C=Nc2cc(C(=O)c3ccccc3)ccc2N)=C(O)C1,inactive,
Cc1cccc(NC(=O)CNC(=O)c2cccc(-n3cccc3)c2)c1C,active: 3.55 µM,
Nc1[nH]n2c(=O)cc(-c3ccccc3)nc2c1N=Nc1ccc2c(c1)OCO2,"inconclusive: 39.8 µM [inhibitor, single point]",
O=C(COc1ccc2ccccc2c1Br)N1CCOCC1,"inconclusive: 7.08 µM [inhibitor, single point]",
N#Cc1c(N2CCCC2)nc(N)c2c(N)nc(N3CCCC3)cc12,"inconclusive: 31.6 µM [inhibitor, single point]",
CCOc1ccc(Nc2nc(Cl)nc(N3CCN(c4ccc(OC)cc4)CC3)n2)cc1,"inconclusive: 11.2 µM [inhibitor, partial curve]",
O=C(Nc1c(F)cc(F)cc1Br)c1cc(-c2ccccc2)on1,"inconclusive: 0.891 µM [inhibitor, single point]",
Cc1cc(-c2c(C)[nH]n(-c3ccccc3)c2=O)n[nH]1,"inconclusive: 28.2 µM [inhibitor, single point]",
COc1cccc(C2C3=C(CC(C)(C)CC3=O)Nc3cc(OC)c(OC)cc32)c1 (stereo unspecified),inactive,
O=C1CCCC2=C1C(c1ccco1)Nc1ccc3ccccc3c12 (stereo unspecified),active: 3.16 µM,
CC1CCC/C(=C\Nc2ccc(O)cc2)C1=O (stereo unspecified),"inconclusive: 39.8 µM [inhibitor, single point]",
Cc1ccc(C)c(S(=O)(=O)c2c(N)n(/N=C/c3ccco3)c3nc4ccccc4nc23)c1,"inconclusive: 25.1 µM [inhibitor, single point]",
